# Measurements from PubChem BioAssay AID1625 (Sanford-Burnham Center for Chemical Genomics, 2009).
# Some of the results follow. Shown are side measurements of this screen, not its main read-out; they come without a call. The list favours compounds with an active or inconclusive main result.
# Assay: insulin promoter activators in MIN6 cells, imaging, high-content screening, mouse beta cells (AID 1625);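 note: total cells summed across four imaged fields per well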
# Conditions: MIN6 insulin promoter-GFP reporter, measured here: cytotoxicity, nuclei count, at 5 µM
row,Compound,cell count [cells]
1,CCOC(=O)c1c(C)oc2c(F)c(F)c(F)c(F)c2c1=O,457
2,CC(C)(C)C(=O)c1sc2nc(-c3cccs3)cc(C(F)(F)F)c2c1N,1460
3,CCCCCn1nc(-c2ccccc2)c2nc3ccccc3nc21,1650
4,O=C1C=C(NCCN2CCOCC2)C(=O)c2cnccc21,336
5,C/C(=N\NC(=O)NC1CCCCC1)C1CCCCC1,437
6,CC1CC(=O)C2=C(C1)OC(N)=C(C#N)C2c1coc2ccccc2c1=O (stereo unspecified),1240
7,N=c1n(Cc2ccccc2)c2ccccc2n1CC(O)COc1ccc(Cl)cc1Cl (stereo unspecified),385
8,c1ccc(CCNc2ncnc3ccccc23)cc1,491
9,COC(=O)C1=C(C)N=c2s/c(=C3\C(=O)Nc4ccccc43)c(=O)n2C1c1ccccc1 (stereo unspecified),282
10,COc1cc(/C=C2\CC/C(=C\c3cc(OC)c(O)c(OC)c3)C2=O)cc(OC)c1O,362
11,O=C(Nc1ccn(Cc2ccc(F)cc2)n1)c1ccncc1,286
12,Nc1c(C(=O)N/N=C/c2cccnc2)oc2nc(-c3ccco3)cc(-c3ccco3)c12,905
13,CCN(C(=O)c1ccc(C(C)(C)C)cc1)c1nnc(Cn2nnc3ccccc32)s1,316
14,COc1ccc(OC)c(C2C3CN(C(C)C)CC=C3C(C#N)=C(N)C2(C#N)C#N)c1 (stereo unspecified),1390
15,OC1(c2cn(Cc3ccccc3)nn2)CCCCC1,1170
16,O=S(=O)(Nc1cc(Sc2ncn[nH]2)c(O)c2ccccc12)c1ccccc1,300
17,COC(=O)c1ccc2c(c1)C(C)(C)C(/C=C/c1ccc(O)cc1)=[N+]2C,466
18,CCOC(=O)c1ccc(NC(=O)COc2ccc(S(=O)(=O)NC(C)CC)cc2)cc1 (stereo unspecified),1420
19,CCCCCc1cc(=O)oc2c(C(CCN3CCCC(C)C3)c3cc(OC)c(OC)c(OC)c3)c(OC)cc(OC)c12 (stereo unspecified),190
20,COc1ccc(C2C(C(C)=O)=C(C)N=c3s/c(=C\c4cc(C)n(C)c4C)c(=O)n32)c(OC)c1 (stereo unspecified),1250
21,CCCN1C(=O)c2cccc3c(N4CCCCC4)ccc(c23)C1=O,1520
22,CC(C)Cn1c(N)c(C(=O)COC(=O)CC23CC4CC(CC(C4)C2)C3)c(=O)n(C)c1=O,218

row,Compound,cell count [cells]
1,Cc1ccccc1C(=O)N1CCc2ccccc2C1,1180
2,S=c1sc2c(Cl)ncnc2n1-c1ccccc1,339
3,CC1CCC/C=C/C(=O)c2c(O)cc(O)cc2CC(=O)O1 (stereo unspecified),353
4,COc1cc(S(=O)(=O)N2CCOCC2)ccc1NC(=O)COC(=O)C12CC3CC(CC(C3)C1)C2,1400
5,CN(CCCC(=O)Nc1ccncc1)S(=O)(=O)c1ccc(Cl)cc1,419
6,COC(=O)c1sc2nc(CSc3nc4ccc(C)cc4[nH]3)[nH]c(=O)c2c1C,437
7,CC(Cc1cccs1)NC(=O)Nc1cccc(Cl)c1 (stereo unspecified),482
8,CCN1C(=O)C(C(=O)NC(C)c2ccccc2)C2CC1(C)Oc1ccccc12 (stereo unspecified),296
9,N#C/C(=C/c1ccc(N2CCCCC2)o1)C(=O)Nc1ccc2ccccc2c1,947
10,O=C(CCl)N(c1ccc(Cl)cc1)c1c[nH]c2ccccc12,469
11,Oc1ccccc1-c1nnc(SCCN2CCOCC2)n1Cc1ccccc1,480
12,COc1ccc2c(c1)NC(c1ccc(N(C)C)cc1)c1cccn1-2 (stereo unspecified),1350
13,O=C(COC(=O)C1CC(O)CN1C(=O)Oc1ccccc1)c1ccc(Br)cc1 (stereo unspecified),405
14,Cn1nc(-c2ccccn2)nc2c(=O)n(C)c(=O)nc1-2,445
15,S=C1Cc2ccccc2N1,167
16,CC(C)NC(=O)NC(=O)COC(=O)c1cccc(S(=O)(=O)N2CCCCC2)c1,1220
17,CCOc1ccc(-n2c(-c3ccccc3)c[n+]3c2CCC3)cc1,420
18,COc1ccc(-n2nc(C#N)c(Cl)cc2=O)cc1,447
19,N=c1oc2c3c4c(cc2cc1C(=O)Nc1ccccc1)CCCN4CCC3,968
20,COc1ccc(CCNc2cc(N3CCN(C(=O)c4ccccc4F)CC3)ccc2[N+](=O)[O-])cc1OC,213
21,CCCCN(C)C1=CC2=CC(=C(C#N)C#N)CCC2CC1 (stereo unspecified),1160
22,Cc1ccc(NC(=O)c2ccc(Nc3c([N+](=O)[O-])cc([N+](=O)[O-])cc3[N+](=O)[O-])cc2)cc1,475

row,Compound,cell count [cells]
1,O=C(CN1C(=O)C2CC=CCC2C1=O)Nc1nnc(SCc2c(Cl)cccc2Cl)s1 (stereo unspecified),454
2,Oc1c(C(c2cccs2)N2CCN(c3ccccc3)CC2)ccc2cccnc12 (stereo unspecified),331
3,CC(=O)Oc1ccc2c(c1)Oc1cc(OC(C)=O)ccc1C21OC(=O)c2ccccc21,1390
4,O=[N+]([O-])c1ccc(C2=NN(c3ccccc3)C(c3ccco3)C2)cc1 (stereo unspecified),902
5,N#C/C(C(=O)c1ccccc1)=C1/SC=C(N)N1c1ccccc1,1160
6,Nc1c(C(=O)Nc2nccs2)sc2nc(-c3cccs3)cc(C(F)(F)F)c12,980
7,CCc1c(C)sc2nc(C(C)C)nc(SCC(=O)N3CCc4ccccc4C3)c12,358
8,O=C(Nc1cccc(Cl)c1)N1CCSc2cc(Cl)ccc21,454
9,Cc1c(C(=O)N2CCCCC2)oc2ccc(S(=O)(=O)N3CC(C)CC(C)C3)cc12 (stereo unspecified),287
10,O=C(Nc1cccnc1)C1(F)C(F)(F)C(F)(F)C(F)(F)C(F)(F)C1(F)F,335
11,COc1ccc(-n2cc(-c3ccc(OC(F)F)cc3)[n+]3c2CCCCC3)cc1,419
12,Cc1ccc(Cl)cc1N1CCN(C(=O)CN(C2CCCCC2)S(C)(=O)=O)CC1,485
13,CN(C)S(=O)(=O)c1ccc(-c2csc(N/N=C/c3ccc(O)cc3)n2)cc1,480
14,CN(C)c1ccc(-c2nnn(CC(=O)N3c4ccccc4CCc4ccccc43)n2)cc1,491
15,C1=C(c2ccccc2)Nc2nnnn2C1,683
16,O=S(=O)(/C(=C/c1ccc(C(F)(F)F)cc1)c1nc2ccccc2[nH]1)c1ccccc1,495
17,Cn1c(=O)c(N)c2c3c(c(Br)ccc31)C(=O)c1ccccc1-2,1320
18,CCN(CC)c1ccc(C=C(c2nnnn2-c2ccccc2)c2nnnn2-c2ccccc2)cc1,1400
19,CCN1C(=O)CSc2ccc(C(=O)NCc3ccccc3OC)cc21,1470
20,O=C(N/N=C/c1cnc2ccccc2n1)c1cccc(F)c1,416
21,CCOC(=O)CN1C(=O)S/C(=C/c2ccc(N3CCCCC3)o2)C1=O,1480
22,O=C(NCC1CCCO1)C1CCN(S(=O)(=O)N2CCCC2)CC1 (stereo unspecified),1580

row,Compound,cell count [cells]
1,COC(=O)[C@@H](NC(=O)Nc1cccc(OC)c1)C(C)C,1460
2,O=C(COC(=O)c1cc(S(=O)(=O)N2CCOCC2)ccc1O)NCC1CCCO1 (stereo unspecified),1220
3,O=Cc1sc(Nc2ccccc2)nc1Cl,1280
4,COc1ccc(C(=O)c2sc3nc(-c4ccccc4)ccc3c2N)cc1OC,1300
5,FC(F)(F)c1cccc(-c2nc3nc(Cl)c(Cl)nc3[nH]2)c1,490
6,COCCNC(=O)c1cc2c(=O)n3cccc(C)c3nc2n1C,478
7,COC(=O)c1[nH]c(C)c(/C(O)=C2\C(=O)C(=O)N(CCN(C)C)C2c2ccccc2OC)c1C (stereo unspecified),306
8,O=C(N/N=C/c1c(O)ccc2ccccc12)c1[nH]ncc1Br,471
9,O=C(N/N=C/c1sc(N2CCOCC2)nc1-c1ccccc1)c1cccc(S(=O)(=O)N2CCOCC2)c1,495
10,Cc1noc(C)c1COC(=O)c1cccc(S(=O)(=O)N2CCCCCC2)c1,470
11,CCn1cc([N+](=O)[O-])c(C(=O)Nc2ccn(Cc3ccccc3)n2)n1,401
12,Cc1ccc(NC(=O)/C=C/c2ccc([N+](=O)[O-])s2)cc1,654
13,CC(C)(C)C(=O)/C=c1\s/c(=C\c2ccc(-c3ccc([N+](=O)[O-])cc3)o2)c(=O)n1CC(=O)NC(N)=O,1350
14,CCOc1ccc(NC2=NCC(=O)N2Cc2cccs2)cc1,1320
15,CCOc1cc(CNCc2ccncc2)cc(Br)c1OCc1ccccc1F,244
16,CCn1c2ccccc2c2cc(NC(=O)c3cc(OC)c(OC)c(OC)c3)ccc21,376
17,COc1ccc(C(=O)/C=C/c2ccc(N(C)C)cc2)c(OC)c1,1030
18,Cc1ccccc1N1CCN(c2ncnc3scc(-c4cccs4)c23)CC1,451
19,OCCNc1nc(Nc2ccccc2)nc2ccccc12,449
20,COc1ccc2c(n1)Sc1nc3ccccc3nc1N2,1460
21,COc1cc(CN2CCc3ccccc3C2)ccc1O,409
22,CC1CCN(C(=O)CNS(=O)(=O)c2ccc(Br)s2)CC1,864

row,Compound,cell count [cells]
1,COc1ccc2[nH]cc(CCN=C3SCC(=O)N3C)c2c1,435
2,COc1cc(C(=O)N2CCN(c3ncnc4sc(C)c(C)c34)CC2)cc(OC)c1OC,215
3,CCOC(=O)CC1C(=O)NCCN1c1nc2ccc(C)cn2c(=O)c1/C=C1\SC(=S)N(C(C)CC)C1=O (stereo unspecified),1280
4,Cc1ccc(Nc2nc(Cl)c(C=O)s2)cc1Cl,1510
5,O=C(c1ccccc1)c1c2c(cc3sc4ccccc4[n+]13)-c1cccc3cccc-2c13,180
6,CCOC(=O)c1c(NC(=O)C2COc3ccccc3O2)sc(C(C)=O)c1C (stereo unspecified),494
7,COc1ccc(-n2nnnc2SCC#CCO)cc1,444
8,C=CCN(CC=C)CCOc1ccccc1,363
9,CCn1c(CNC(=O)COc2ccc(C(C)C)cc2)nnc1SCC(=O)Nc1ccccc1C(C)C,499
10,CCOc1ccc(NC(=O)C2=C(C)C(=O)OC23CCC(C)CC3)cc1 (stereo unspecified),315
11,CN1CCN(Cc2nc(N)nc(Nc3ccc4c(c3)OCCO4)n2)CC1,1100
12,COc1ccc(N=C2NC(=O)S/C2=C\c2ccc(N(C)C)cc2)cc1,1330
13,Cc1ccc(C2(C(F)(F)F)N=C3Sc4cc(C)ccc4N3C(=O)N2)cc1 (stereo unspecified),1040
14,COCCNS(=O)(=O)c1ccc(SC)cc1,470
15,Cc1cc(N2CCN(C/C=C/c3ccccc3)CC2)n2ncnc2n1,190
16,O=C(C1=C(c2ccccc2)C(=O)c2ccccc2C1=O)c1ccccc1,253
17,CC1CC(C)(C)Nc2ccc(N=O)cc21 (stereo unspecified),742
18,Cc1cc(C(=O)CSc2nc3ccccc3c(=O)n2C)c(C)n1Cc1ccc2c(c1)OCO2,185
